# From PubChem BioAssay AID686978 (National Center for Advancing Translational Sciences (NCATS), 2013)
# The campaign covered roughly 420,000 compounds. About 64,000 (15%) were called active. The inconclusive results got no clear call from the source; some entries with a clear call stand among them for comparison. The call rests on the fitted dose curve; in most records, active means well fitted inhibition curve with a large enough effect; inconclusive means small, poorly fitted or top-dose-only effect; inactive means flat fitted curve, though single readings scatter. No potency is given beside an inconclusive call; the fits are too rough.
# Experiment: qHTS for Inhibitors of human tyrosyl-DNA phosphodiesterase 1 (TDP1): qHTS in cells in absence of CPT; further: nearly all actives have a fitted effect of over 55% in size
# Settings: DT40 Tdp1-/- hTDP1 cells, no CPT, ATP luminescence, 48 h; activity change, negative = growth inhibition: at 46.2 µM (top of the series) unless noted
# Procedure, shortened: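 Cells were dispensed at 400 per well, compounds added by pin tool, plates incubated ≥48 hr at 37 °C, then CellTiter-Glo added for 30 min at room temperature before luminescence reading. Line: DT40 Tdp1-/- complemented with hTDP1; camptothecin omitted.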
# On the % scale 0 is the no-effect control and ±100 the full control effect; potency means the concentration at half of the fitted maximal effect; tags describe the fitted curve by direction and shape.
SMILES,Potency,"activity change, negative = growth inhibition"
COc1ccc(NC(=O)N2CCC(n3cnc4ccccc43)CC2)cc1,"inconclusive [inhibitor, single point]",–
Cn1nnnc1SCc1csc(Nc2ccccc2)n1,–,inconclusive: -32.1% [inhibitor]
Cc1[nH]c2ccccc2c1C(=O)c1cc([C@H](NC(=O)OC(C)(C)C)C(C)C)sc1N,"inconclusive [inhibitor, single point]",–
CC(=O)C(Sc1ccc2nnc(-c3ccc(F)cc3)n2n1)C(C)=O,–,inactive: -28.1%
C(=C\c1ccc2ccccc2n1)/c1ccc2ccccc2n1,"inconclusive [inhibitor, partial curve, poor fit]",–
COc1cccc(C2=NOC(C(=O)N3CCc4ccccc4C3)C2)c1 (centres undefined),"inconclusive [inhibitor, single point]",–
CC(C)(C)N(Cc1ccccc1)C(=O)COC(=O)CN1C(=O)NC2(CCCC2)C1=O,"inconclusive [inhibitor, single point]",–
Cc1ccc2c(c1)C(c1ccccc1)N(C(=O)C(C)C)CC(=O)N2 (centres undefined),"inconclusive [inhibitor, single point]",–
CC1=C/C(=C(\c2cc(C)c(O)c(Br)c2)c2ccccc2S(=O)(=O)O)C=C(Br)C1=O,"inconclusive [inhibitor, single point]",–
N/C(=N\OC(=O)c1ccc(Cl)cc1)c1[nH]ncc1Br,–,inactive: -19.2%
CCOc1ccccc1N1CN(C2CCCCC2)CNC1=S,–,inactive: -9.42%
Oc1cccc(-c2nc(-c3cccs3)c(-c3cccs3)[nH]2)c1,"inconclusive [inhibitor, single point]",–
COc1ccc(-c2cc(C(=O)NC3CCCC3)c3ccccc3n2)cc1,"inconclusive [inhibitor, single point]",–
COc1cc(C(Nc2ccccn2)c2c(NC(=O)c3ccco3)sc(C)c2C)cc(OC)c1OC (centres undefined),"inconclusive [inhibitor, single point]",–
O=C(CSc1nncn1-c1ccccc1F)NC1CC1,–,inactive: -0.36%
CCOc1ccc(/C(O)=C2/C(=O)C(=O)N(CC3CCCO3)C2c2cccs2)cc1 (centres undefined),"inconclusive [inhibitor, partial curve, poor fit]",–
Cc1ccc(SCC(=O)NC(=O)NCc2ccco2)c(C)c1,–,inactive: -15.3%
O=C(c1ccc(Br)cc1)c1cc(-c2ccccn2)c(N2CCOCC2)s1,"inconclusive [inhibitor, single point]",–
Cc1ccccc1OCCSc1nnc(-c2ccc([N+](=O)[O-])cc2)o1,–,inactive: -16.6%
Cc1ccccc1NC(=O)c1ccc2snnc2c1,"inconclusive [inhibitor, single point]",–
Cc1ccc(NC(=O)c2sc3ncn(CC(=O)N4CCN(c5ccccn5)CC4)c(=O)c3c2C)cc1Cl,active: 14.6 µM,–
COC(=O)c1c(NC(=O)CN2CCN(C(=O)c3ccco3)CC2)c2cc(C)ccc2n1C,–,inconclusive: -30.6% [inhibitor]
CCOc1cc(N2CCOCC2)c(OCC)cc1NC(=O)c1cc(S(=O)(=O)N2CCOCC2)ccc1C,"inconclusive [inhibitor, single point]",–

SMILES,Potency,"activity change, negative = growth inhibition"
CCc1cc2c(cc3c(=O)n(CC(=O)NC(C)C)nc(CC)n32)s1,active: 16.4 µM,–
O=C(c1ccc2c(c1)N(Cc1cccc(Cl)c1)C(=O)c1ccccc1S2(=O)=O)N1CCN(Cc2ccccc2)CC1,active: 9.2 µM,–
CN1CC(=O)N(CC(=O)Nc2ccc(OCc3ccccc3)cc2)C1=O,"inconclusive [inhibitor, single point]",–
CCOC(=O)Cc1csc(SCc2nc3sc4c(c3c(=O)[nH]2)CCC4)n1,"inconclusive [inhibitor, single point]",–
COc1ccc(CNC(=O)CSCc2ccc(C)cc2)c(OC)c1,"inconclusive [inhibitor, single point]",–
Clc1cc(Br)ccc1OCCCNCc1ccccc1,"inconclusive [inhibitor, single point]",–
O=C(CCS(=O)(=O)c1ccccc1)N1CCCc2ccccc21,"inconclusive [inhibitor, single point]",–
O=C(COC(=O)/C=C/c1ccccc1)NC1CCCCCC1,–,inactive: -5.62%
COc1ccccc1NC(=O)c1cc2c(n(-c3ccc(C)cc3)c1=O)CC(C)(C)CC2=O,–,inactive: 5.2%
C/C(=N\NC(=O)c1c(Cl)c(C)nn1C)c1cccc(NC(=O)C2CCCC2)c1,"inconclusive [inhibitor, single point]",–
COc1ccc(OCCn2ccnc2)cc1,–,inactive: 8.25%
CCC1CCCCN1CCCNC(=O)c1sc2nc(C)cc(C)c2c1-n1cccc1 (centres undefined),"inconclusive [inhibitor, single point]",–
C1CCN(c2nc3nonc3nc2NCC2CCOCC2)CC1,–,inactive: 3.64%
CCNC(=O)NC1c2ccccc2CSc2ccccc21 (centres undefined),"inconclusive [inhibitor, single point]",–
Cc1ccc(CN2CCN(Cc3c[nH]c4ccccc34)CC2CCO)o1 (centres undefined),"inconclusive [inhibitor, single point]",–
CC1CCCC(C)N1C(=O)c1cc(-c2ccc3c(c2)OCO3)on1 (centres undefined),active: 25.9 µM,–
CCNc1nc(NC(C)C)nc(OCCOC(=O)Nc2ccccc2)n1,"inconclusive [inhibitor, partial curve, poor fit]",–
Cc1cc(Br)ccc1NC(=O)CN1C(=S)NC(C)(C)CC1C (centres undefined),"inconclusive [inhibitor, single point]",–
COc1ccc(-c2cc(C(=O)Nc3ccc(C)c(N)c3)c3ccccc3n2)cc1,"inconclusive [inhibitor, partial curve, poor fit]",–
Cc1ccc(N2C(=O)CC(Sc3ncccc3C(=O)O)C2=O)cc1 (centres undefined),–,inactive: 5.17%
FC(F)Oc1ccc(NC(=S)NN2CCOCC2)cc1,–,inactive: -0.319%
O=C(COC(=O)/C=C/c1cccs1)NC(c1ccccc1)c1ccccc1,–,inconclusive: -30.2% [inhibitor]
c1ccc(-c2cc(-c3nnc4n3N=C(c3ccc5ccccc5c3)CS4)[nH]n2)cc1,"inconclusive [inhibitor, single point]",–

SMILES,Potency,"activity change, negative = growth inhibition"
COc1ccc(/C=N/NC(=O)c2cc(-c3ccccc3OC(C)C)nc3ccccc23)cc1CN1CCOCC1,"inconclusive [inhibitor, single point]",–
CN(CCC#N)c1ncnc2scc(-c3ccccc3)c12,active: 14.6 µM,–
Nc1ccc(C(=O)N/N=C2\CCCc3c2[nH]c2ccccc32)cc1,"inconclusive [inhibitor, single point]",–
COc1cc(C2c3cc4c(cc3OC(N3CCCC3)C2C)OCO4)cc(OC)c1O (centres undefined),active: 16.4 µM,–
CCc1ccc(S(=O)(=O)Nc2c(NC3CCCCC3)c3ccccc3oc2=O)cc1,"inconclusive [inhibitor, single point]",–
O=C1N/C(=C/c2ccc(N3CCCC3)cc2)C(=O)N1c1ccccc1,"inconclusive [inhibitor, partial curve]",–
O=S(=O)(O)c1cc(O)c2c(N=Nc3ccc(Nc4ccccc4)c4c(S(=O)(=O)O)cccc34)cc(S(=O)(=O)O)cc2c1,active: 13.3 µM,–
CCCCOc1ccc(NC(=O)CN2CCN(Cc3ccccc3)CC2)cc1,"inconclusive [inhibitor, single point]",–
COc1ccc(OC)c(NS(=O)(=O)c2ccc3c(c2)CCCN3C(=O)C2CCC2)c1,"inconclusive [inhibitor, single point]",–
Cn1c(SCc2cccc(C#N)c2)nc2ccccc2c1=O,"inconclusive [inhibitor, single point]",–
O=C(Nc1ccc2c(c1)OCCO2)c1ccc(Cl)c(S(=O)(=O)N2CCCCC2)c1,"inconclusive [inhibitor, partial curve]",–
CC(C)(C)NC(=O)NC(=O)CN1CCN(S(=O)(=O)c2ccc3c(c2)CCCC3)CC1,"inconclusive [inhibitor, single point]",–
O=C(Nc1nccs1)c1ccc(COc2c(F)c(F)cc(F)c2F)o1,"inconclusive [inhibitor, single point]",–
O=C(NCC1CCCO1)c1cccc(S(=O)(=O)NCc2ccccc2)c1 (centres undefined),–,inactive: -26.5%
O=C(CCCn1c(=O)[nH]c2cc(Cl)ccc2c1=O)NCCCN1CCN(c2ccc(F)cc2)CC1,active: 20.6 µM,–
Cc1ccc(Cl)cc1NC(=O)Cn1c(C)csc1=O,–,inactive: -14.8%
CCc1cc(=O)oc2c(C)c3c(cc12)CN(CCc1ccccc1)CO3,"inconclusive [inhibitor, single point]",–
CCOc1ccc(CN(C)CC(=O)Nc2cccc(S(=O)(=O)N(C)c3ccccc3)c2)cc1,"inconclusive [inhibitor, single point]",–
CC(C)C[C@H]1CN([C@@H](CC(C)C)CN2CCCC2CN2C(=S)NC[C@@H]2Cc2ccccc2)C(=S)N1CC1CCCCC1 (some centres undefined),"inconclusive [inhibitor, partial curve]",–
COCCNC(=O)c1cc(S(=O)(=O)N2CCCCC2)ccc1N1CCOCC1,–,inactive: -1.32%
Nc1cccc(CCc2nc3cc4ccccc4cc3[nH]2)c1,active: 4.11 µM,–
CN(C)S(=O)(=O)Oc1ccsc1C(=O)Nc1ccc(Cl)c(Cl)c1,"inconclusive [inhibitor, partial curve]",–
O=C(Nc1cccc(F)c1)C1CCN(C(=O)N2CCOc3ccccc32)CC1,"inconclusive [inhibitor, partial curve]",–
